# Measurements from ChEMBL document CHEMBL4888484, “Replenishing the malaria drug discovery pipeline: Screening and hit evaluation of the MMV Hit Generation Library 1 (HGL1) against asexual blood stage Plasmodium falciparum ,using a nano luciferase reporter read-out” (2022).
# Out of some 150,000 compounds screened, about 540 (0.36%) showed an effect of 50% or more. This is one part of the list.
# Tested on: Plasmodium falciparum
# Experiment: Primary screen in NF54 nanoGlo assay, in single point, at 2uM, 72h; a lower Z score goes with more inhibition
# Type: functional, Erythrocyte
# Details: timepoint 72 hour
Structure (SMILES),% Inhibition,Z score
Cc1nc(C)c([C@H](C)NC(=O)c2cccnc2)s1,0%,0.03
CC(C)c1noc([C@@H]2CCCN2CCCn2cnnn2)n1,-3%,0.37
Cc1ncn(C)c1C(=O)N[C@@H](C)c1nc(C2CC2)no1,-2%,0.23
COc1ccccc1C(=O)N1CCN(Cc2nc[nH]n2)CC1,3%,-0.52
Cc1ccc(CNCc2cccnc2N2CCC[C@H](O)C2)o1,-12%,1.99
CCc1nn(C)cc1CNC(=O)N1CCC(C)(CC(C)C)CC1,-2%,0.36
CCCc1ccc(OCCNS(=O)(=O)N2CCC(OC)CC2)cc1,-8%,1.5
Cc1nocc1Cc1noc(NCc2ccc3c(c2)OCO3)n1,12%,-1.61
Cc1cc(N2C[C@@H]3CN(C(=O)C4CCCC4)C[C@]3(C(=O)O)C2)ccn1,-13%,1.17
Cc1cnc(C)c(N2CCC(c3nc(C(C)C)no3)CC2)n1,3%,-0.35
Cc1nc2ccc(N3CC(C)(C)OC(C)(C)C3)nn2n1,2%,-0.28
O=C1CCC[C@@H](C(=O)N2CCCN(c3cccc(F)c3F)CC2)N1,-12%,2.28
Cc1cc(C(=O)NCCCNCc2cccnc2)c(Cl)cc1F,31%,-3.95
O=C(Cn1cnc2ccccc2c1=O)N1CCc2ncccc2C1,-3%,0.41
COC(=O)c1c(NC(C)=O)c2cc(N)cnc2n1CCC(C)C,-3%,0.4
O=c1[nH]nc(C(F)(F)F)n1C[C@H]1CCCO1,-16%,2.35
Cc1noc(C)c1C(=O)Nc1nc([C@@H]2CCCO2)n[nH]1,-1%,0.08
COCCC1(CNC(=O)C2C3CCCCC32)CCCCC1 (stereo not drawn),-3%,0.55
C[C@](O)(CNC(=O)CC=Cc1ccc(F)cc1)CN1CCOCC1,-11%,1.07
O=C1CN([C@@H](C(=O)Nc2cc(Cl)cc(Cl)c2)c2ccccc2)c2ccccc2N1,-5%,0.88
Cc1ncsc1CN(Cc1ccccc1)C(=O)C1=NNC(=O)CC1,0%,-0.01

Structure (SMILES),% Inhibition,Z score
O=C1COc2cccc(OCc3noc4c3CCCC4)c2N1,-22%,2.29
CC(C)N1Cc2cc(C(=O)NCc3cccs3)sc2C1,1%,-0.22
C[C@@H](CCNCc1ccnn1-c1ccc(F)cc1)N(C)C,-3%,0.3
CC1CN(C(=O)CCC2CN(C(=O)OC(C)(C)C)C2)CC(C)O1 (stereo not drawn),4%,-0.75
C[C@@H](CS(C)(=O)=O)NS(=O)(=O)c1cccc(Cl)c1,-10%,1.41
Cc1ccc(Cl)cc1N1CCN(c2cc(C3CC(O)C3)ncn2)CC1 (stereo not drawn),-8%,0.98
COc1ccc2[nH]nc(C(=O)N3CCN(c4ccccc4Cl)C(=O)C3)c2c1,5%,-0.81
CC1(C)[C@@H]2CCC13CS(=O)(=O)N(CCOc1ccc(C#N)cc1)[C@H]3C2,22%,-2.82
COc1cc(-c2cc(C(=O)Nc3c(C)n(C)n(-c4ccccc4)c3=O)c3ccccc3n2)cc(OC)c1OC,6%,-0.77
Cc1nnc(-c2cc(CCC(C)C)n(-c3cccc(C(=O)N[C@H]4CCCc5ccccc54)c3)n2)o1,-4%,0.69
CC1=C[C@@H](CNC(=O)C2CCCCC2)[C@H](C(C)C)C[C@H]1Cc1nc2cccc(C)c2[nH]1,0%,-0.07
COCCN1C[C@@H](CN2CCc3c(Cl)cccc3C2)CC1=O,-2%,0.3
CN(CCCN1CCCCCC1)C(=O)C1(Nc2ccccc2)CCCC1,8%,-1.48
Cc1nc(NC(=O)N2C[C@@H]3OC(=O)N(C4CCN(C(C)C)CC4)[C@@H]3C2)cs1,-13%,2.06
Cc1cc2ccccc2nc1N1CCN(Cc2cnn3cccnc23)CC1,0%,0.09
CC(C)[C@H](Cn1nccn1)NC(=O)c1ccc(C(F)(F)F)cc1,-8%,1.24
Cc1ncc(C(=O)N2CCC3(CC2)Cc2cn(nn2)CCCOc2ccc(cc2)CCNC3=O)cn1,-1%,0.15
O=C(Nc1nncs1)c1ccc(N2CCC3(CCCCC3)C2)nc1,-4%,0.56
Cn1cccc1C(=O)N1CCN(C(=O)C2CCCCC2)[C@@H](C(=O)N[C@H]2CCCNC2=O)C1,2%,-0.2
CN1N=C(C(=O)Nc2cc(CCc3ccccc3)n[nH]2)CCC1=O,-3%,0.42
CC(=O)N(C)C1CCN(C(=O)c2cc(NS(=O)(=O)c3cccs3)ccc2O)CC1,-7%,0.68

Structure (SMILES),% Inhibition,Z score
COc1ccc(F)cc1CNS(=O)(=O)CC1C[C@@H]2COC[C@@H]2O1 (stereo partly drawn),-6%,1.09
COC[C@H](C)c1nc(CCN2C(=O)c3ccccc3C2=O)cs1,-19%,2.58
c1ccc(-c2noc(CCCN3CCC[C@H]3c3ncccn3)n2)cc1,12%,-1.58
CCc1cc(C(=O)Nc2cccc(F)c2)c2c(C)nn(Cc3ccccc3)c2n1,35%,-3.92
NC(=O)c1cc(Cl)ccc1OCC(=O)NC1CCN(Cc2ccccc2)CC1,-6%,1.22
O=C1NCCN1C(=O)NC[C@@H](c1ccco1)n1cccn1,7%,-0.9
C[C@@H](C(=O)NC1CC1)n1nc(-c2ccccc2)c2cc(Cl)ccc21,2%,-0.31
CCOCCCNC(=O)c1c(-c2ccccc2)nnc2ccc(C)cc12,-4%,0.46
Cc1ccc(Cl)cc1NC(=O)Cc1c(C)nc2nc(-c3cccnc3)nn2c1C,10%,-1.78
Cn1cc(NC(=O)C[C@H](n2cccn2)C(F)(F)F)c(C(N)=O)n1,0%,-0.02
C=CCn1cc(-c2c(-c3ccccc3)ncn2CC(=O)Nc2ccccc2C)cn1,1%,-0.06
CCOC(=O)C1CCN(C(=O)COC(=O)c2cc(-c3ccc(Cl)c(Cl)c3Cl)nc3ccccc23)CC1,14%,-1.59
Cc1ccc(C(=O)NCc2nc3cc(Cl)ccc3s2)c(=O)[nH]1,-15%,1.4
CC(C)CN(CC(=O)N(Cc1ccc(F)cc1)C1CCN(C(=O)c2cccc(F)c2)CC1)S(=O)(=O)c1ccc(Cl)cc1,-9%,1.67
CC1CN(Cc2ncnn2C(C)(C)C)CC(c2ccc(F)cc2)O1 (stereo not drawn),3%,-0.54
Cc1cc(C(=O)NCCn2ccnc2)c(C)s1,-5%,0.67
C[C@H](OC(=O)c1ccc2nc(N)sc2c1)C(=O)N1CCOCC1,-5%,0.65
COc1ccc(Cn2nccc2NC(=O)NC23CC2COC3(C)C)c(OC)c1 (stereo not drawn),0%,0.04
Cc1cc([C@]2(C)NC(=O)N(Cc3nnc(C4CC4)o3)C2=O)c(C)o1,-12%,1.01
COc1ccc(CNC2(C(=O)N3CCOCC3)CCCCC2)c(C)c1,-8%,1.28
Cc1ccccc1N1CCN(C(=O)[C@H]2CCC(=O)N(CCc3ccccc3)C2)CC1,-3%,0.43

Structure (SMILES),% Inhibition,Z score
CC1CC(C(=O)NC(Cc2cccc3ccccc23)C(=O)O)CCO1 (stereo not drawn),-8%,1.49
CN1CCC2C(CCCN2C(=O)NCC2CC=CCC2)C1 (stereo not drawn),-11%,1
CC(C)(C)c1nnc([C@H]2CCN(C(=O)C3CCCCC3)C2)o1,32%,-3.57
CCCC(=O)N1CC(OCc2ccc(F)cc2)C1,-9%,1.39
CCn1nc(C)cc1-c1cccc2nsnc12,-17%,2.67
CN(CCCc1nccn1C)c1cc([C@H]2CCOC2)nc(N2CC(O)C2)n1,-21%,2.7
COc1ccc(Br)c(CC(=O)NCc2noc(C)n2)c1,-11%,2.1
CC(C)(C)OC(=O)N1CC(CCN2CCC=C(F)C2)C1,-13%,1.24
Cc1nc2cc(N(C)C(=O)c3cc(C#N)c[nH]3)ccc2[nH]1,11%,-1.24
CCc1nnc(N2CCC(c3ncncc3C)CC2)o1,11%,-1.95
O=C(NCc1nnc2n1CCC2)c1ccccc1C(=O)c1ccc(Cl)cc1,-16%,2.19
Cn1cnnc1CN1CCc2sccc2C1,8%,-1.07
Cc1nc(-c2cc(S(=O)(=O)Nc3cccc(F)c3)cn2C)sc1C(=O)N1CCOCC1,6%,-0.66
COC[C@H]1CCN1C(=O)c1ccncc1F,-15%,1.25
CC(C)CC1(CNC(=O)COCc2nncn2C)CC1,0%,0.04
CCO[C@H]1C[C@@H](NC(=O)c2ccc(-c3nnc(C)[nH]3)cc2)C1,-14%,2.56
CCn1cc(C2CCN(C(=O)NCc3cscn3)CC2)cn1,30%,-3.43
O=C(NC1CCCS(=O)(=O)C1)C1CC1c1cccc(F)c1F (stereo not drawn),-10%,1.11
CC(Cc1cccc(F)c1)C(=O)NC1CCN(C(N)=O)C1 (stereo not drawn),-12%,2.24
N#CCC(=O)N[C@H](Cc1cccc(Br)c1)CC1CC1,6%,-0.61
CN(C)c1cccc(S(=O)(=O)NC2(C(F)(F)F)CCOCC2)c1,-4%,0.54
